# Among all 420,000 compounds or so, about 50,000 (12%) were called active. The inconclusive results got no clear call from the source; some entries with a clear call stand among them for comparison. Calls follow the shape of the dose curve; as a rule, active = well fitted inhibition curve with a large enough effect; inconclusive = small, poorly fitted or top-dose-only effect; inactive = flat fitted curve, though single readings scatter. Potencies of inconclusive entries are left out as doubtful fits.
# Assay: qHTS for Inhibitors of human tyrosyl-DNA phosphodiesterase 1 (TDP1): qHTS in cells in presence of CPT; also: nearly all actives have a fitted effect of over 55% in size
# Conditions: chicken DT40 Tdp1-/-;hTDP1 cells + 20 nM CPT, ATP luminescence, 48 h; activity change, negative = growth inhibition: at 46.2 µM (top of the series) unless noted
# How it was run: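 Chicken DT40 Tdp1-/- cells complemented with human TDP1, 400 cells/well, exposed to compounds plus 20 nM camptothecin for at least 48 h at 37 C; viability read as ATP content by CellTiter-Glo luminescence.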
# % is scaled to controls: 0 for no effect and ±100 for the full control effect; potency is read from the fitted curve at half-maximal effect; tags tell the direction and shape of the fitted curve.
Structure (SMILES),Potency,"activity change, negative = growth inhibition"
COc1ccccc1N1CCN(C(=O)c2cc(-c3ccc(Br)cc3)on2)CC1,"inconclusive [inhibitor, single point]",
COC(=O)C1=C(C)NC(C)=C(C(=O)OC)C1C(=O)OCC(=O)Nc1ccc(C(C)=O)cc1,,inactive: 8.34%
COc1ccc(C2=NCC(CSc3nnc(-c4ccc5c(c4)OCO5)o3)S2)cc1 (centres undefined),"inconclusive [inhibitor, partial curve]",
CC1CCN(Cc2c(C(=O)N/N=C/c3cccc(Cl)c3)nnn2-c2nonc2N)CC1,"inconclusive [inhibitor, single point]",
COc1ccc2c(c1OC)C(=O)OC2Nc1nc(-c2cc3cc(Br)ccc3oc2=O)cs1 (centres undefined),"inconclusive [inhibitor, single point]",
O=C(OCC(=O)N(Cc1ccccc1)Cc1ccccc1)c1ccccc1O,active: 18.4 µM,
O=C(Nc1cc(=O)[nH]c2ncnn12)c1ccc(Cl)cc1Cl,,inactive: 9.33%
COc1cc(C(CC(=O)Nc2ccc(Br)cn2)N2Cc3ccccc3C2=O)cc(OC)c1OC (centres undefined),"inconclusive [inhibitor, single point]",
COc1ccc(-c2ccc(C(=O)NCc3ccc(N(C)C)cc3)c3occc23)c(C)c1,"inconclusive [inhibitor, single point]",
O=C(CC1C(=O)NCCN1C(=O)Nc1ccc(C(F)(F)F)cc1)Nc1ccc(F)cc1 (centres undefined),"inconclusive [inhibitor, single point]",
O=C1Cc2cccc3cccc1c23,,inactive: -5.48%
CC(CO)Nc1nc(SCc2ccccc2)nc2sc3c(c12)CCC3 (centres undefined),,inactive: -12.9%
Cc1ccc(S(=O)(=O)N(C)c2ccc(C(=O)NC3CCCCC3)cc2)cc1,"inconclusive [inhibitor, partial curve]",
Cc1cc(C)nc(Nc2cccc(C(F)(F)F)c2)n1,,inactive: -25.2%
Cc1c(C(=O)Nc2cccc(F)c2)oc2c1-c1nn(Cc3c(F)cccc3Cl)cc1CC2,"inconclusive [inhibitor, single point]",
CCOc1cc(N2CCOCC2)c(OCC)cc1NC(=O)c1ccc(S(=O)(=O)N(C)C)cc1,"inconclusive [inhibitor, single point]",
Cc1cc(C)cc(-n2c3nc4ccccc4nc3c3c(=O)n(Cc4ccco4)cnc32)c1,active: 23.1 µM,
Cc1nc2ccc(NC(=O)c3ccc(F)c(S(=O)(=O)N4CCOCC4)c3)cc2s1,"inconclusive [inhibitor, partial curve]",
CCOC(=O)[C@]12CCC=C1N(Cc1ccc(Cl)cc1Cl)C(=O)[C@H](CC(=O)N1CCCCC1)C2,"inconclusive [inhibitor, single point]",

# Reference: PubChem BioAssay AID686979 (National Center for Advancing Translational Sciences (NCATS), 2013)
